From the supplement of paper PMC9151546
Single values are uncertain, as repeats are few or missing.

Columns and labels:
CHO-K1 [1] = test: micronucleus frequency (% of nucleated events); higher = more micronuclei (genotoxic)
CHO-K1 [2] = test: relative survival (nuclei to bead ratio vs DMSO control) (% of vehicle control); higher = more surviving cells
Experimental: (§1)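 Flow-cytometric in vitro micronucleus assay (Litron MicroFlow) in CHO-K1 cells in 96-well plates, 19 concentrations (4.5-200 µM, n=1 per concentration). Without S9, cells were exposed for 24 h and sampled at 48 h. With Aroclor 1254-induced rat liver S9, cells were exposed for 3-4 h and sampled at 27-28 h. Read-outs are %MN and %hypodiploid nuclei relative to nucleated events, and relative survival as the nuclei-to-bead ratio versus the 1% DMSO vehicle control (x100).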

CHO-K1 [3] = test: hypodiploid nuclei frequency (% of nucleated events); higher = more hypodiploid events (aneugenic)
Experimental: as §1
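Wherever hypodiploid nuclei frequency (% of nucleated events) is given: hypodiploid nuclei gated on a flow cytometer with 488 nm excitation after SYTOX Green staining, cultures at 37 °C, positive controls vinblastine without S9 and cyclophosphamide with S9.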
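Wherever micronucleus frequency (% of nucleated events) is given: cells lysed with nuclei stained by SYTOX Green, then micronucleus-gated events counted against nucleated events by flow cytometry with 488 nm excitation.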
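Wherever relative survival (nuclei to bead ratio vs DMSO control) is given: Lysed-cell nuclei stained with SYTOX Green and counted against counting beads by flow cytometry at 488 nm excitation, with vinblastine (no S9) and cyclophosphamide (plus S9) as positive controls.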

Cc1cc(Cc2ccc(N)c(C)c2)ccc1N [4,4'-Methylenebis(2-methylaniline)]
Conditions | hypodiploid nuclei frequency, CHO-K1 [3] [%] | micronucleus frequency, CHO-K1 [1] [%] | relative survival, CHO-K1 [2]
concentration: 4.5 (µM), S9 metabolic activation: with S9, exposure time: 3-4 hours | 1.4 | 1.4 | 94.1
concentration: 4.5 (µM), S9 metabolic activation: without S9, exposure time: 24 hours | 0.92 | 1.4 | 85.6
concentration: 5.63 (µM), S9 metabolic activation: with S9, exposure time: 3-4 hours | 3.28 | 1.68 | 73.6
concentration: 5.63 (µM), S9 metabolic activation: without S9, exposure time: 24 hours | 1 | 1.7 | 101
concentration: 7.04 (µM), S9 metabolic activation: with S9, exposure time: 3-4 hours | 2.54 | 1.28 | 87.3
concentration: 7.04 (µM), S9 metabolic activation: without S9, exposure time: 24 hours | 1.2 | 1.68 | 78.6
concentration: 8.8 (µM), S9 metabolic activation: with S9, exposure time: 3-4 hours | 3.02 | 1.56 | 79.4
concentration: 8.8 (µM), S9 metabolic activation: without S9, exposure time: 24 hours | 1.54 | 1.56 | 99
concentration: 11 (µM), S9 metabolic activation: with S9, exposure time: 3-4 hours | 4.98 | 1.54 | 82.3
concentration: 11 (µM), S9 metabolic activation: without S9, exposure time: 24 hours | 1.48 | 1.48 | 108
concentration: 13.7 (µM), S9 metabolic activation: with S9, exposure time: 3-4 hours | 4.88 | 1.68 | 85.2
concentration: 13.7 (µM), S9 metabolic activation: without S9, exposure time: 24 hours | 1.46 | 1.96 | 99.9
concentration: 17.2 (µM), S9 metabolic activation: with S9, exposure time: 3-4 hours | 4.72 | 1.7 | 104
concentration: 17.2 (µM), S9 metabolic activation: without S9, exposure time: 24 hours | 1.3 | 1.58 | 118
concentration: 21.5 (µM), S9 metabolic activation: with S9, exposure time: 3-4 hours | 4.84 | 1.7 | 105
concentration: 21.5 (µM), S9 metabolic activation: without S9, exposure time: 24 hours | 1.48 | 1.38 | 91
concentration: 26.8 (µM), S9 metabolic activation: with S9, exposure time: 3-4 hours | 0.42 | 1.92 | 105
concentration: 26.8 (µM), S9 metabolic activation: without S9, exposure time: 24 hours | 1.38 | 1.78 | 96.6
concentration: 33.6 (µM), S9 metabolic activation: with S9, exposure time: 3-4 hours | 0.44 | 1.5 | 105
concentration: 33.6 (µM), S9 metabolic activation: without S9, exposure time: 24 hours | 1.9 | 2.32 | 112
concentration: 41.9 (µM), S9 metabolic activation: with S9, exposure time: 3-4 hours | 0.48 | 1.62 | 101
concentration: 41.9 (µM), S9 metabolic activation: without S9, exposure time: 24 hours | 2.36 | 2.54 | 87.1
concentration: 52.4 (µM), S9 metabolic activation: with S9, exposure time: 3-4 hours | 0.76 | 1.32 | 83.6
concentration: 52.4 (µM), S9 metabolic activation: without S9, exposure time: 24 hours | 2.96 | 2.7 | 78.6
concentration: 65.5 (µM), S9 metabolic activation: with S9, exposure time: 3-4 hours | 0.52 | 1.3 | 108
concentration: 65.5 (µM), S9 metabolic activation: without S9, exposure time: 24 hours | 3.28 | 3.1 | 86.3
concentration: 81.9 (µM), S9 metabolic activation: with S9, exposure time: 3-4 hours | 0.54 | 1.74 | 101
concentration: 81.9 (µM), S9 metabolic activation: without S9, exposure time: 24 hours | 5.28 | 3.74 | 73.5
concentration: 102 (µM), S9 metabolic activation: with S9, exposure time: 3-4 hours | 0.64 | 1.4 | 85.9
concentration: 102 (µM), S9 metabolic activation: without S9, exposure time: 24 hours | 6.22 | 4.2 | 66.5
concentration: 128 (µM), S9 metabolic activation: with S9, exposure time: 3-4 hours | 1.12 | 1.5 | 100
concentration: 128 (µM), S9 metabolic activation: without S9, exposure time: 24 hours | 8.78 | 6.4 | 58.5
concentration: 160 (µM), S9 metabolic activation: with S9, exposure time: 3-4 hours | 0.74 | 1.34 | 102
concentration: 160 (µM), S9 metabolic activation: without S9, exposure time: 24 hours | 14.3 | 10.7 | 52.1
concentration: 200 (µM), S9 metabolic activation: with S9, exposure time: 3-4 hours | 0.74 | 1.46 | 95.5
concentration: 200 (µM), S9 metabolic activation: without S9, exposure time: 24 hours | 24 | 17.3 | 40

Cc1cn([C@H]2C[C@H](N=[N+]=[N-])[C@@H](CO)O2)c(=O)[nH]c1=O [3'-Azido-3'-deoxythymidine]
hypodiploid nuclei frequency [%], CHO-K1 [3]
Conditions | S9 metabolic activation: with S9, exposure time: 3-4 hours | S9 metabolic activation: without S9, exposure time: 24 hours
concentration: 4.5 (µM) | 0.12 | 0.58
concentration: 5.63 (µM) | 0.16 | 0.62
concentration: 7.04 (µM) | 0.18 | 0.64
concentration: 8.8 (µM) | 0.18 | 0.68
concentration: 11 (µM) | 0.18 | 1
concentration: 13.7 (µM) | 0.28 | 0.82
concentration: 17.2 (µM) | 0.18 | 0.68
concentration: 21.5 (µM) | 0.1 | 0.94
concentration: 26.8 (µM) | 0.1 | 0.74
concentration: 33.6 (µM) | 0.12 | 0.9
concentration: 41.9 (µM) | 0.16 | 0.62
concentration: 52.4 (µM) | 0.16 | 0.88
concentration: 65.5 (µM) | 0.14 | 1.06
concentration: 81.9 (µM) | 0.08 | 1.16
concentration: 102 (µM) | 0.16 | 1.06
concentration: 128 (µM) | 0.16 | 1.08
concentration: 160 (µM) | 0.28 | 1.08
concentration: 200 (µM) | 0.08 | 1.8

C=CC(N)=O [Acrylamide]
hypodiploid nuclei frequency [%], CHO-K1 [3]
Conditions | S9 metabolic activation: with S9, exposure time: 3-4 hours | S9 metabolic activation: without S9, exposure time: 24 hours
concentration: 4.5 (µM) | 0.26 | 0.44
concentration: 5.63 (µM) | 0.06 | 0.5
concentration: 7.04 (µM) | 0.14 | 0.34
concentration: 8.8 (µM) | 0.2 | 0.46
concentration: 11 (µM) | 0.08 | 0.56
concentration: 13.7 (µM) | 0.18 | 0.48
concentration: 17.2 (µM) | 0.16 | 0.46
concentration: 21.5 (µM) | 0.26 | 0.76
concentration: 26.8 (µM) | 0.24 | 0.78
concentration: 33.6 (µM) | 0.22 | 0.5
concentration: 41.9 (µM) | 0.32 | 0.7
concentration: 52.4 (µM) | 0.64 | 0.48
concentration: 65.5 (µM) | 0.26 | 0.98
concentration: 81.9 (µM) | 0.18 | 1.02
concentration: 102 (µM) | 0.4 | 1.24
concentration: 128 (µM) | 0.32 | 1.64
concentration: 160 (µM) | 0.38 | 1.42
concentration: 200 (µM) | 0.22 | 1.5
